Assay [1] has as its target T1, human nerve growth factor (NGF) (human, UniProt P01138 part only).
T1 construct: range 122-241; biotin-labeled in OCTET and ELISA assays; also called human NGF; biotin-NGF
Kind of assay: BIACORE SPR. The procedure: (§1) Antibodies were captured on either a goat, anti-human or anti-mouse IgG polyclonal antibody surface created by direct amine coupling of the capture antibody to a BIACORE™ chip. […] Kinetic analysis was performed to obtain the equilibrium dissociation constant (KD) and dissociation rate constant, and the latter was used to calculate the antigen/antibody complex dissociation t_{1/2} (Table 1).
(§2) The binding affinities of the antibodies to both mNGF and rNGF were determined as described above.

Assay [2] addresses mouse NGF (mNGF) (mouse, UniProt P01139 122-241, limits assumed). Nature of the assay: BIACORE SPR. The procedure: as §1, §2
On the technique in general: SPR reads the build-up and loss of mass on a sensor chip optically.

Assay [3] deals with rat NGF (rNGF) (rat, UniProt P25427 122-241, limits assumed). Nature of the assay: BIACORE SPR. The procedure: as §1, §2
For assay [4], the target named is T1, human nerve growth factor (NGF). Nature of the assay: cell-based or functional assay.
In assay [5] the target is T2, human neurotrophin-3 (NT-3) (human, UniProt P20783 139-257).
T2 construct: also called human NT-3
T2 sequence (looked up): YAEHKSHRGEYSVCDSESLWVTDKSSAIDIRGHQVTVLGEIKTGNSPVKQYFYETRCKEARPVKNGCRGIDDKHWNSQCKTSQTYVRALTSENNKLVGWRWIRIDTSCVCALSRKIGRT
Kind of assay: BIACORE SPR; mAb captured, NT-3 injected. As for the experimental part:
Briefly, goat anti-human IgG polyclonal antibody was chemically linked to a CM5 chip. […] Both association and dissociation phases were monitored and data were analyzed.

Assay [6] deals with T1, human nerve growth factor (NGF). Nature of the assay: BIACORE SPR; complex dissociation half-life. As for the experimental part: as §1
For assay [7] the target is unchanged. Kind of assay: BIACORE SPR; mAb captured, human NGF injected. As for the experimental part:
as §1

The target is the same in assay [8]. Kind of assay: BIACORE blocking; % free NGF bound to p75-hFc chip. The text has this:
(§3) To identify blocking antibodies, a receptor blocking assay was designed using a BIACORE™ 3000 instrument. Recombinant human TrkA-hFc and human p75-hFc proteins were amine-coupled to a CM5 chip to a density of about 5000-6000 RU.

Assay [9] shares this target. Kind of assay: BIACORE blocking; % free NGF bound to TrkA-hFc chip.
Source text: as §3

T1 sequence (P01138 122-241 limits assumed): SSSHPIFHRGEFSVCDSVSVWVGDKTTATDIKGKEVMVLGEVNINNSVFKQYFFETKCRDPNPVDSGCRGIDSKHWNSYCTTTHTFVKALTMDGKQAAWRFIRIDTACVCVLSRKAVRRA
Sequence of UniProt P01139 (P01139 122-241 limits assumed): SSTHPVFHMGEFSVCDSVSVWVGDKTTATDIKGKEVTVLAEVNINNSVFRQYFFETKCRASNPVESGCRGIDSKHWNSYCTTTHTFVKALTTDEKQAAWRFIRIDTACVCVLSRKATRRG
Sequence of UniProt P25427 (P25427 122-241 limits assumed): as the sequence (P01139 122-241 limits assumed) above, with A40G, R50K, S61P, E94D, T117A counted along it

B1: 301272-6E07-D10 (antibody)
heavy: EVQLVQSGGGLVQPGRSLRLSCAAPGFNFDDYAMHWVRQTPGKGLEWVSGISWNSGTIGYADSVKGRFTISRDNAKNSLYLQMNSLRPEDTALYYCAKEGVWFGKLFSSYGMDVWGQGTTVTVSS[human IgG1 constant region omitted here]
VL: DIRMTQSPATLSVSPGERATLSCRASQSVTYNLDWYQQKPGQAPRLLIFGASTRATGIPARFSGSGSGTEFTLTITSLQSEDFAVYYCQQYNNWPYTFGQGTKVEIK
notes: also called REGN263
As a reminder, the Kd is the concentration at which binding is half-saturated. Lower therefore signals a tighter complex. Take B1: the Kd worked out at 0.013 nM in assay [1], 0.362 nM in assay [2], 0.36 nM in assay [3] and 0.013 nM in assay [7]. In addition, the “MG87 IC50” value in [4] was found to be 0.293 nM. For the same molecule, the “PC12 IC50” value in assay [4] is 0.726 nM. Further, in assay [5], the binding result was “no binding (tested: 20 nM)”. Further, in [6], the t1/2 was 4.5 h. Further, in assay [8], the “% Binding p75-hFc” value amounted to 6%. The “% Binding TrkA-hFc” value in assay [9] is 4%.

The values are drawn from patent publication US20120164688A1 (Regeneron, published 2012).
